Experimental findings from ChEMBL document CHEMBL4888484, “Replenishing the malaria drug discovery pipeline: Screening and hit evaluation of the MMV Hit Generation Library 1 (HGL1) against asexual blood stage Plasmodium falciparum ,using a nano luciferase reporter read-out” (2022) are described below.

Out of some 150,000 compounds screened, about 540 (0.36%) showed an effect of 50% or more. The list shows a part of the results.

This test relates to Plasmodium falciparum. The experiment in a line: Primary screen in NF54 nanoGlo assay, in single point, at 2uM, 72h; a lower Z score goes with more inhibition. The class given is functional, Erythrocyte. Particulars: timepoint 72 hour.
Consider `Cn1ncc(Cl)c1C(=O)N1CC[C@@]2(CCCN(CC3CC3)C2=O)C1`, for which the “% Inhibition” value is 2% and the Z score is recorded as -0.34.

As for `C#CCN(C)C(=O)CCc1ccc(Cl)s1`, the “% Inhibition” value amounted to 0% and the Z score is reported as 0.07.

As for `CC(=O)N1CCC(C(=O)N[C@@H](CC(C)C)c2ncnn2C)CC1`, the “% Inhibition” value was -20% and the Z score is reported as 2.54.

With `CCCc1nn(-c2cccc(F)c2)c(N2CCN(CC)CC2)c1CN(CCC)Cc1ccccc1`, the “% Inhibition” value is given as -27% and the Z score is listed as 2.37.

Consider `CC(=O)c1ccc(N2CCN(C(=O)CCN3C(=O)c4ccccc4C3=O)CC2)cc1`, for which the “% Inhibition” value is given as -2% and the Z score is listed as 0.28.

With `COc1cc(-c2cc(C(=O)N3CCN(C(c4ccccc4)c4ccccc4)CC3)c3ccccc3n2)cc(OC)c1OC`, the “% Inhibition” value is listed as 15% and the Z score is recorded as -1.55.

Regarding `CC(=O)Nc1ccc(-c2cn(C)c[n+]2C)cc1`, the “% Inhibition” value is -42% and the Z score came to 4.97.

Regarding `CC(C)c1noc(CN(C)C(=O)CCc2cccc(Cl)c2)n1`, the “% Inhibition” value is reported as -22% and the Z score came out at 1.99.

Take `Cc1ccc(C(=O)O/N=C(\Nc2cc(C)ccc2C)c2nonc2N)cc1`: the “% Inhibition” value was -1% and the Z score is 0.24.

Turning to `CC(=O)c1c(C)n(-c2ccccc2)c2cc(Br)c(OCc3nnc(C)o3)cc12`, the “% Inhibition” value was -11% and the Z score was determined as 1.94.

`COc1ccccc1CCNC(=O)Nc1c(-c2ccccc2)nn(-c2ccc(C(F)(F)F)cc2)c1N`: the “% Inhibition” value was -13% and the Z score turned out to be 1.37.

Regarding `Cc1ccc(CN(CCO)Cc2cc(-c3ccccc3)on2)o1`, the “% Inhibition” value is listed as -14% and the Z score was 1.58.

As to `COc1ccc(-c2cc(C)no2)cc1S(=O)(=O)NCCN(Cc1ccco1)C1CCCC1`, the “% Inhibition” value is reported as -19% and the Z score was determined as 2.49.

Regarding `Cc1cc(OCc2nnc(/C=C/c3ccccc3)o2)ccc1Br`, the “% Inhibition” value is -8% and the Z score was 1.57.

As to `CNC(=O)Cc1nc(CNC2CCCC2c2ccccc2)cs1` (configuration not stated), the “% Inhibition” value is listed as -12% and the Z score is 1.3.

As to `CCN(CC)c1onc(-c2ccccc2)c1CN(Cc1ccccc1)C(=O)C(C)C`, the “% Inhibition” value came to 5% and the Z score is -0.64.

As to `CCCCc1nc(CN2C[C@@H]3CC[C@H]2CN(S(=O)(=O)N(C)C)C3)c[nH]1`, the “% Inhibition” value came to 1% and the Z score is -0.19.

Consider `Nc1nc(CCC(=O)N2CCC[C@@H]2CO)cs1`, for which the “% Inhibition” value is -7% and the Z score stood at 0.66.

For the compound `Cc1ccc(NC(=O)Cc2csc(-c3cccnc3)n2)cc1`, the “% Inhibition” value was -9% and the Z score is 1.5.

With `N#Cc1ccc(CN2CCN3C(=O)c4ccc(-c5ccccc5)cc4OCC[C@@H]4CC[C@H](O)[C@@H](CNC(=O)[C@@H]3C2)O4)cc1`, the “% Inhibition” value is on record as 10% and the Z score was -1.35.

Consider `CCOC(=O)N(C)CC(=O)N(CC#N)Cc1ccccc1`, for which the “% Inhibition” value turned out to be 7% and the Z score is listed as -0.88.

`CCc1nnc2c(=O)n(CC(=O)NCC3CCCCC3)c3cccnc3n12`: the “% Inhibition” value stood at 0% and the Z score is -0.01.

As to `CCOC(=O)CCc1c(C)nc2ncnn2c1N1CCN([C@@H](C)c2ccccc2)CC1`, the “% Inhibition” value is recorded as -1% and the Z score stood at 0.12.

Take `O=C(c1csc2ccccc12)N1CCn2c(nnc2C(F)F)C1`: the “% Inhibition” value was -1% and the Z score is recorded as 0.24.

In the case of `O=C(c1ccc2c(-c3ccccc3)onc2c1)N1CCN(C(=O)c2ccco2)CC1`, the “% Inhibition” value is recorded as -19% and the Z score came out at 1.76.

As to `CN1CCC[C@@H](c2nc(Cc3c(F)cccc3Cl)no2)C1=O`, the “% Inhibition” value was -10% and the Z score stood at 1.19.

With `COC(=O)c1cc(C)ccc1OC(=O)CCN1CCCC1=O`, the “% Inhibition” value is listed as 1% and the Z score is reported as -0.17.

In the case of `CCCn1c(C)cnc1[C@H]1CCN(C(=O)Cc2cccc(OC)c2)C1`, the “% Inhibition” value is given as -4% and the Z score was found to be 0.62.

As to `O=C(NCc1cc(C2CC2)ncn1)c1ccccc1Cl`, the “% Inhibition” value worked out at 5% and the Z score was -0.7.

On to `O=C(N[C@H]1CCOC[C@@H]1OCCO)c1cccc(C(F)(F)F)c1`, for which the “% Inhibition” value was -19% and the Z score amounted to 2.8.

Turning to `C[C@@H](Cc1ccccn1)NC(=O)Cc1noc2ccccc12`, the “% Inhibition” value is listed as -16% and the Z score worked out at 2.08.

Regarding `Cc1ccc(C[C@H](C)NS(=O)(=O)C2CCOCC2)s1`, the “% Inhibition” value is -4% and the Z score is listed as 0.77.

Regarding `N#CCCn1cc(C(=O)Nc2nccs2)c(-c2ccc(F)cc2)n1`, the “% Inhibition” value is listed as -6% and the Z score turned out to be 0.95.

For the compound `Cc1nnc(O)c(CNS(=O)(=O)CC2CCCCC2)c1C`, the “% Inhibition” value is -10% and the Z score stood at 1.34.

In the case of `CCOc1ccc(NC(=O)c2cn3nc(-c4ccc(OCC)cc4)cc3nc2C2CCN(C(=O)OC(C)(C)C)CC2)cc1`, the “% Inhibition” value is on record as 21% and the Z score is -1.7.

Regarding `COCC[C@H](NS(=O)(=O)c1ccsc1C#N)c1cccnc1`, the “% Inhibition” value is listed as -2% and the Z score was 0.21.

For `CC[C@@H]1Oc2ccc(NC(=O)COc3ccccc3)cc2CN(Cc2ccccc2)C1=O`, the “% Inhibition” value was -4% and the Z score is listed as 0.53.

As to `CN(C)C(=O)OCCN(C)[C@H]1CCCc2c1cnn2C`, the “% Inhibition” value was -9% and the Z score is on record as 1.1.

For the compound `Cn1cnnc1Cc1c[nH]c2ccccc12`, the “% Inhibition” value is -14% and the Z score stood at 2.74.

With `COCCC1(CNC(=O)N2CCCCCCC2)CC1`, the “% Inhibition” value came to 2% and the Z score is -0.21.

Consider `Cc1cc(C)c(NC(=O)c2cccn2-c2cccnc2C)c(C)c1`, for which the “% Inhibition” value is reported as -16% and the Z score is listed as 1.57.

The term % Inhibition denotes the change of the read-out against control, counted positive when it falls.
